# Test results: PubChem BioAssay AID1508642 (National Center for Advancing Translational Sciences (NCATS), 2021)
# Hit rate of the full screen: of about 43,000 compounds, about 200 (0.47%) were called active. About 12% were inconclusive and are not listed. Calls follow the shape of the dose curve; as a rule, active = well fitted cell-killing curve with a large enough effect; inconclusive = small, poorly fitted or top-dose-only effect, or effect the other way; inactive = flat fitted curve, though single readings scatter. Some of the results follow.
# Assay: Cell viability qHTS assay in S16 Pmp22-F2sN cells; also: nearly all actives have a fitted effect of over 65% in size
# Settings: S16 Pmp22-F2sN Schwann cells (luciferase reporters placed in the Pmp22 gene) viability, CellTiter-Glo, 24 h; series mostly up to 57.5 µM; activity change, negative = cytotoxicity: at the top concentration
# Outline: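 Luminescence from CellTiter-Glo, read by CCD camera after a 15 min room-temperature incubation, served as the viability signal. Reporter Schwann cells (S16 Pmp22-F2sN) had been treated with pin-transferred compounds for 24 h at 37C.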
# % is scaled to controls: 0 for no effect and ±100 for the full control effect.
row,SMILES,"activity change, negative = cytotoxicity"
1,CC1=C(C(N)=O)C(c2cccc(C)c2)n2nc(-c3cccc(C)c3)nc2N1 (stereo not given),inactive: -16.1%
2,Cc1ccc(C)c(NC(=O)Cn2c(=O)n(Cc3ccc4c(c3)OCO4)c(=O)c3oc4ccccc4c32)c1,inactive: 8.29%
3,Cc1ccc(CSc2nnc(-n3c(=O)c(C#N)cc4c(=O)n5cc(C)ccc5nc43)s2)cc1,inactive: -19.8%
4,COc1ccc(-c2noc(CSc3nc(C)cc(=O)[nH]3)n2)cc1OC,inactive: 17%
5,COc1ccc(OCC2c3cc(OC)c(OC)cc3CCN2C(=O)COc2ccc(Cl)cc2Cl)cc1 (stereo not given),inactive: 1.66%
6,CC(C)c1ccc2occ(CC(=O)Nc3ccccc3Cl)c2c1,inactive: -5.92%
7,COc1ccc(Cn2ccc3nc(C)c(C(=O)N4CCN(c5ccccc5OC)CC4)cc3c2=O)cc1,inactive: -25.8%
8,CC(C)NC(=O)C(c1ccccc1)N1Cc2ccccc2C1=O (stereo not given),inactive: 6.22%
9,CCN(C(=O)CSc1nc2ccccc2n1CC(=O)Nc1ccc(F)cc1F)c1ccccc1,inactive: -0.953%
10,COc1ccc(-c2ccc(CCC(=O)O)n2-c2ccc(Cl)cc2C)cc1,inactive: 0.312%
11,CCOC(=O)c1cccc(NC(=O)CCc2c(C)nn(-c3ccc(N4CCOCC4)nn3)c2C)c1,inactive: 22.7%
12,Cc1cn2c(=O)c(S(=O)(=O)NCc3ccccc3Cl)c(C)nc2s1,inactive: -1.18%
13,COCCCn1c(=O)c2sccc2n2c(CCCC(=O)NCc3ccc(F)cc3)nnc12,inactive: 0.979%
14,Cc1ccc2[nH]c3c(=O)n(CC(=O)NCCc4ccc(Cl)cc4)ncc3c2c1,inactive: 6.56%
15,COc1ccc(NC(=O)C2CCN(c3cnccn3)CC2)cc1Cl,inactive: 4.58%
16,CCn1cc(S(=O)(=O)c2cccc(C)c2)c(=O)c2cc(F)c(N3CCN(c4ccccc4)CC3)cc21,inactive: 2.95%
17,CCc1ccc(-n2nc(CO)c(C(=O)NCc3ccccc3OC)n2)cc1,inactive: -2.79%
18,CCOC(=O)c1ccc2[nH]c(CSc3nnc(-c4cccc(F)c4)n3C)cc(=O)c2c1,inactive: 9.68%
19,Cc1ccc(-n2nc(C(=O)N3CCN(c4cccc(C(F)(F)F)c4)CC3)c3c4ccccc4n(C)c3c2=O)cc1,inactive: 1.01%
20,Cc1cccc(NC(=O)COc2cccc3c(=O)n(C)ccc23)c1C,inactive: -12.8%
21,Cc1ccc(C)c(-c2[nH]c3c(c2-c2c(-n4cccc4)n(C)c(=O)n(C)c2=O)c(=O)n(C)c(=O)n3C)c1,inactive: 1.58%
22,COc1ccc(OC)c(NC(=O)c2cc(=O)c3c(C)cc(C)cc3o2)c1,inactive: -0.372%
23,Cc1ccc(CNc2cc(C)nc3nc(-c4cccc(C)c4)nn23)cc1,inactive: -7.66%
24,Cc1ccc(CNc2nccn(-c3cc(C)cc(C)c3)c2=O)cc1,inactive: -20.7%

row,SMILES,"activity change, negative = cytotoxicity"
1,CCc1ccc(NS(=O)(=O)c2ccc3[nH]cc(C(=O)N(C)Cc4ccco4)c(=O)c3c2)cc1,inactive: -2.24%
2,CCC(=O)N1CCc2cc(Br)cc(S(=O)(=O)CCC(=O)NCCc3ccccc3)c21,inactive: -11%
3,CCc1ccccc1NC(=O)Cn1cc2c(n1)CCC(C)C2 (stereo not given),inactive: -1.73%
4,CCCN(C(=O)CCNC(=O)Cn1cnc2ccccc2c1=O)c1cccc(C)c1,inactive: 3.86%
5,CCN(C(=O)c1cc2c(=O)oc3ccc(C)cc3c2s1)c1ccccc1F,inactive: 13.1%
6,CCOc1ccccc1NC(c1nnc(-c2ccccc2)o1)c1ccc(F)cc1Cl (stereo not given),inactive: -0.639%
7,CCOC(=O)c1c(NC(=O)c2ccc(OC)c(OC)c2)sc2c1CCCCC2,inactive: 7.42%
8,O=C(Nc1ccc2oc(-c3ccc(Cl)cc3)nc2c1)c1ccc2ccccc2c1,inactive: 5.72%
9,Cc1cccc(NS(=O)(=O)c2ccc(NC(=O)N3CCCC3)cc2)c1,inactive: 5.25%
10,COc1ccc(CN2C(=O)c3oc4ccccc4c(=O)c3C2c2ccc(O)c(OC)c2)cc1 (stereo not given),inactive: 11.7%
11,Cc1csc2nc(CCNS(=O)(=O)c3ccc(F)cc3)cn12,inactive: -0.674%
12,CCOc1ccc(CNC(=O)c2ccc3c(c2)nc2n3CCC(C)C2)cc1OC (stereo not given),inactive: 13.7%
13,Cc1ccc(NC(=O)Cn2c(SCc3ccc(F)cc3)nc3cccnc32)cc1F,inactive: -6.19%
14,O=C(O)c1ccc(NC(=O)c2cc3ccccc3o2)cc1,inactive: 5.05%
15,CC1CCc2c(sc(NC(=O)COc3ccccc3C(C)(C)C)c2C#N)C1 (stereo not given),inactive: -0.89%
16,O=C(CSc1nc2c([nH]c3ccccc32)c(=O)n1-c1ccccc1)N1CCCCCC1,inactive: 13.2%
17,Cc1cccc(-n2ccnc2SCC(=O)Nc2ccc3c(c2)OCO3)c1,inactive: -1.54%
18,O=C(Nc1cccc(F)c1)C1CCN(c2nc3ccccc3[nH]2)CC1,inactive: 14.4%
19,CCc1cccc(NC(=O)CCS(=O)(=O)c2ccc3nc(C)sc3c2)c1,inactive: -10.8%
20,CCc1ccc(-n2nc(C)c3c(C)cc(=O)n(CC(=O)Nc4ccccc4C(=O)OC)c32)cc1,inactive: 3.38%
21,CCCCOc1ccc(C(=O)N/C(=C\c2ccc(Br)cc2)C(=O)NC2CCCCC2)cc1,inactive: -3.21%
22,CSCCC(NS(=O)(=O)c1ccc2c(c1)oc(=O)n2C)C(=O)N1CCN(c2ccc(F)cc2)CC1 (stereo not given),inactive: -0.36%
23,Cc1c(Cl)cccc1NC(=O)Cn1cc2c(n1)CCCC2,inactive: 1.08%
24,Cc1oc2c(c(C)cc3oc(=O)c(CC(=O)NCc4ccccc4)c(C)c32)c1C,inactive: 11.8%

row,SMILES,"activity change, negative = cytotoxicity"
1,CCOC(=O)c1cc(-c2ccccc2)n(-c2cccc(C(=O)Nc3cccc(C(C)=O)c3)c2)c1C,inactive: -1.87%
2,COc1cccc(N2CCN(C(=O)CN3C(=O)COc4ccc(S(=O)(=O)N5CCC(C)CC5)cc43)CC2)c1,inactive: 18.7%
3,COc1ccc(C(=O)NCC(c2cccnc2)N2CCc3ccccc32)cc1OC (stereo not given),inactive: -26.6%
4,CCCCN(CCCNC(=O)c1c(C)oc2nc[nH]c(=O)c12)Cc1ccccc1,inactive: 16.2%
5,Cc1ccc(NC(=O)Cn2cc(S(=O)(=O)N3CCC(C)CC3)c3ccccc3c2=O)c(Br)c1,inactive: 0.917%
6,COc1ccc(-c2nnc(SCC(=O)N(C)Cc3ccccc3)o2)cc1OC,inactive: 18.4%
7,CNC(=O)c1c(NC(=O)c2ccc(S(=O)(=O)N3CCCCC3C)cc2)sc2c1CCC2 (stereo not given),inactive: -9.11%
8,Cc1ccc(Nc2c(-c3cccnc3)nc3ccc(Br)cn23)cc1,inactive: 29.9%
9,Cc1ccc(CNC(=O)Cn2c(=O)n(Cc3ccc(F)cc3)c(=O)c3sc4ccccc4c32)cc1,inactive: 1.53%
10,CCOC(=O)c1cccc2c1N[C@@H](c1ccc(F)cc1)[C@H]1CC=C[C@@H]21,inactive: -3.36%
11,Cc1ccc(CCNC(=O)c2ccc3c(=O)n(-c4ccccc4)c(=O)[nH]c3c2)cc1,inactive: 3.14%
12,Cn1cc(S(=O)(=O)N2CCCCC2)cc1C(=O)Nc1cccc(C#N)c1,inactive: -0.972%
13,CCCN(C(=O)Cn1ncc2c([nH]c3ccc(C)cc32)c1=O)c1ccccc1C,inactive: -1.86%
14,COc1cccc(N2CC(NC(=O)/C=C\c3ccc(OC)c(OC)c3)CC2=O)c1 (stereo not given),inactive: 3.46%
15,CCC(C)NC(=O)CN1C(=O)COc2ccc(S(=O)(=O)N3CCOCC3)cc21 (stereo not given),inactive: 0.267%
16,CCOc1ccccc1NC(=O)c1c(NCc2sccc2C)sc2c1CCC(C)C2 (stereo not given),inactive: 7.16%
17,O=C(Nc1ccc(Cl)cc1)N1CCC(c2ccccc2)C1 (stereo not given),inactive: -16.3%
18,COc1ccc(N2CC(NC(=O)COc3ccc4ccccc4c3)CC2=O)cc1OC (stereo not given),inactive: 5.24%
19,CCN1C(=O)C(Cc2nc3ccccc3c(=O)n2-c2ccc(OC)cc2)c2ccccc21 (stereo not given),inactive: 3.25%
20,COc1ccc(NC(=O)Cn2cc(S(=O)(=O)Cc3ccc(F)cc3)c3ccccc32)cc1OC,inactive: 2.45%
21,CCOC(=O)C1CCC(CN(Cc2cccc(Br)c2)S(=O)(=O)c2ccc(Cl)cc2)CC1 (stereo not given),inactive: -7.45%
22,CCC(C)NC(=O)c1sc2nc(C)c(C(=O)Nc3ccc(C)cc3C)c(-c3ccccc3Cl)c2c1N (stereo not given),inactive: -6.82%
23,CCN(CC)c1ccc(-c2nc(-c3ccco3)no2)cc1[N+](=O)[O-],inactive: 7.35%
24,COc1ccc(NC(=O)c2cnc(N3CCCCC3)c3ccccc23)cc1Cl,inactive: -6.16%

row,SMILES,"activity change, negative = cytotoxicity"
1,CCCCC1CCC(C(=O)N2CC(=O)Nc3ccc(Cl)cc3C2c2ccc(F)cc2)CC1 (stereo not given),inactive: -14.7%
2,Cc1ccc(-n2c(=O)c3c4c(sc3n(CC(=O)Nc3ccccc3C)c2=O)CCCCC4)cc1C,inactive: 0.0532%
3,COc1ccccc1CNc1nccn(-c2ccccc2)c1=O,inactive: 28.1%
4,CCOC(=O)CC(=O)CSc1nc2ccccc2c(=O)n1CCc1ccc(S(N)(=O)=O)cc1,inactive: 8.67%
5,CC(=O)Nc1ccc(NC(=O)CCS(=O)(=O)c2ccc3c(c2)CC(=O)N3C)cc1,inactive: 12.8%
6,COc1ccc(-c2noc(-c3ccc(NCC4CCCO4)c([N+](=O)[O-])c3)n2)cc1OC (stereo not given),inactive: 0.87%
7,COc1ccccc1Cc1nc2ccccc2nc1SCC(=O)NCc1ccccc1Cl,inactive: -3.27%
8,CN1CCc2nc3sc(C(=O)Nc4ccccc4C(F)(F)F)c(N)c3cc2C1,inactive: -1.87%
9,Cc1ccc2c(=O)c(C(=O)c3cccc(Cl)c3)cn(CC(=O)Nc3ccccc3C(F)(F)F)c2n1,inactive: 7.48%
10,CC1=C(C(=O)OC2CCCCCC2)C(c2cccc(Cl)c2)CC(=O)N1 (stereo not given),inactive: -3.05%
11,COc1ccc2c(CNCc3cccs3)c(C(=O)O)n(Cc3ccccc3F)c2c1,inactive: -18.6%
12,COc1ccc(CC(=O)N2CCc3cc(OC)c(OC)cc3C2COc2ccc(F)cc2)cc1OC (stereo not given),inactive: -19.6%
13,O=C(NCc1ccccc1)c1ccc2oc(=O)n(Cc3ccccc3)c2c1,inactive: -4.05%
14,CCOC(=O)COc1ccc(C)cc1C(=O)c1ccn2nc(-c3ccc(F)cc3)cc2n1,inactive: 24.2%
15,CC1CCN(C(=O)c2cccc(NC(=O)c3nsc4ccccc34)c2)CC1,inactive: -2.25%
16,Cn1c(SCC(=O)Nc2nc3ccccc3s2)ncc(C(=O)Nc2ccc(F)cc2)c1=O,inactive: 4.43%
17,COc1cccc(C(=O)Nc2cccc(C(=O)OCc3cc(=O)n4c(C)csc4n3)c2)c1,inactive: 12.9%
18,Cc1c(C(=O)NC(C)c2ccccc2)sc2nc3n(c(=O)c12)CCCC3 (stereo not given),inactive: 0.491%
19,NS(=O)(=O)c1ccc2nc(NC(=O)COc3ccc(Cl)cc3Cl)sc2c1,inactive: -2.23%
20,COCCNC(=O)c1ccc2c(c1)N=C(C)c1cc(C)ccc1S2,inactive: -1.33%
21,CCOC(=O)Cn1c(=O)n(-c2ccccc2OC)c2nc(-c3ccc(C(C)C)cc3)nc(C(N)=O)c21,inactive: 29.6%
22,CC(C)CC1Nc2ccc(C(=O)NCCCOC(C)C)cc2NC1=O (stereo not given),inactive: 18.8%
23,COc1ccc(C(=O)NCCn2cc(SCC(=O)Nc3ccc4c(c3)OCCO4)c3ccccc32)cc1OC,inactive: -11.2%
